Each structure is given as a SMILES string. Over roughly 110,000 compounds, “z-score” has its median near -0.1; the highest 2% begin near 2. This is one part of the list. The source made the active and inactive calls.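 The calls were made as follows: active = z-score in the third read window above 3 or below -3; inactive = the rest.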

The assay has as its target Metabotropic glutamate receptor 8 (Rattus norvegicus) (UniProt P70579). Put plainly: rat mGluR8 modulators via GIRK flux, primary screen, cell-based, thallium flux, HTS (AID 488969). Conditions: HEK293 rat mGluR8, GIRK (G protein-gated inwardly rectifying potassium channel) thallium flux, FluoZin2; at 10 µM; stronger effect = higher value; submaximal glutamate (EC20) added with thallium.
Sequence of UniProt P70579 (P70579 whole entry, looked up): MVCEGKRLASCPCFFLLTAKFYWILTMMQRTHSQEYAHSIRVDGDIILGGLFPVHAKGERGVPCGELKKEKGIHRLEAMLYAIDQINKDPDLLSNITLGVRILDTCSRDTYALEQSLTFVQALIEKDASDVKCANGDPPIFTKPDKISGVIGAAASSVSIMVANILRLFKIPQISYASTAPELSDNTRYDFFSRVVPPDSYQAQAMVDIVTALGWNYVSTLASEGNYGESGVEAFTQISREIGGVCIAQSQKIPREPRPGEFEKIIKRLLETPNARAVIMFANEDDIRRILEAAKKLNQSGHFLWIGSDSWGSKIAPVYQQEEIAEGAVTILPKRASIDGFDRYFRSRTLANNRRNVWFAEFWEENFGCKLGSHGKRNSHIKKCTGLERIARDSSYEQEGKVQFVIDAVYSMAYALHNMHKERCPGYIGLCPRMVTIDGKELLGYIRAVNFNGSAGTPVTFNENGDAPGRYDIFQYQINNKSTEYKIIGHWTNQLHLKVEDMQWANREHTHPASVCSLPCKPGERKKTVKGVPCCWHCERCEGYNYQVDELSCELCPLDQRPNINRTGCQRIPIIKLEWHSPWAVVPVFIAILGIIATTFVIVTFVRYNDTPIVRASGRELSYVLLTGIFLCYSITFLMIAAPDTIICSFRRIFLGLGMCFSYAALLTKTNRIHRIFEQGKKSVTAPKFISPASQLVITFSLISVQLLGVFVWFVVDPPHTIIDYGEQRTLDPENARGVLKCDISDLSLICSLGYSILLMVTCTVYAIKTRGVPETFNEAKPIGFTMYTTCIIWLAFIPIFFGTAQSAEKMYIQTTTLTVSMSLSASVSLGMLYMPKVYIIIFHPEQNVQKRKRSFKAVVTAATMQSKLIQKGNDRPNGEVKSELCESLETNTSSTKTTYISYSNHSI
The compound `CC[n+]1c(/C=C/c2ccc(N(C)C)cc2)ccc2ccccc21` yielded a z-score of 0.4. Next, `CC1CCN(C(=O)C2CCCN(S(C)(=O)=O)C2)CC1` (stereo not drawn): -0.179. Next, `Cc1ccc(S(=O)(=O)NCc2n[nH]c(=S)n2C)cc1`: -0.112.

As for `O=C(Nc1cccc(Cl)c1)c1csc(-c2ccccc2)n1`, the z-score is -0.387. With `Cc1ccc(OCCCC(=O)Nc2ccccc2C(F)(F)F)cc1` the figure was -0.375; with `C/C(NC(=O)c1cccc(F)c1)=C1/C(=O)C[C@@H]2[C@H]1C2(C)C`, 0.867; with `Cc1ccc2nc(N3C(=O)C(O)=C(C(=O)c4ccco4)C3c3cccs3)sc2c1` (stereo not drawn), -1.09. In the case of `CCOC(=O)c1c(C)nc2sc3c(=O)n(-c4ccc(C(C)=O)cc4)cnc3c2c1-c1ccc(Cl)cc1`, the z-score was -0.533. In turn, `O=C(CCC1CCCCC1)Nc1c[nH]c(=O)[nH]c1=O` gave a z-score of -0.157.

`Cc1cccc(/C=C2\CS/C(=C\c3cccc(C)c3)C2=O)c1` returned a z-score of -0.0758. Next, `COc1ccc2c(CC(=O)NC3CCCc4ccccc43)coc2c1` (stereo not drawn): -0.484; `CCN1CCCC1CNCc1ccccc1OCc1ccc(F)cc1` (stereo not drawn): -0.146; `COc1ccc(-c2noc(COc3ccc4c(c3)OCO4)n2)cc1OC`: -0.634. With `COc1ccc(NC(=O)c2ccc(-c3ccccc3)cc2)cc1NS(=O)(=O)c1ccc(F)cc1` the figure was -0.254. Next, `CCOC(=O)c1c(NC(=O)Nc2cccc(Cl)c2)sc(C)c1C`: 0.0494. Consider `Cc1cc(NC(=O)CN2CCOCC2)n(-c2nc3ccccc3s2)n1`, for which the z-score was 0.191.

`CC1CCCC(C(=O)O)N1C(=O)CCS` (stereo not drawn) came in with a z-score of 1.41. `Cc1ccc(N(CCCCN2C(=O)c3ccccc3C2=O)C(=O)c2cccc([N+](=O)[O-])c2)cc1`: the z-score is -0.0015. With `CCCCNC(=S)N(C)/N=C/c1ccc(OCC(=O)Nc2c(C)cc(C)cc2C)c(OC)c1` the figure was 0.00502; with `CC(C)C(=O)Nc1cc(S(=O)(=O)Nc2ccc(Cl)cc2)ccc1Cl`, -0.205; with `Cc1cccc(OC(C)C(=O)N2CCCc3ccccc32)c1` (stereo not drawn), -0.141.

The compound `O=C(N/N=C/c1c[nH]c2ccccc12)C1CC1c1ccccc1` (stereo not drawn) returned a z-score of -0.408. On to `COc1ccccc1-n1c(SCC(=O)NC2CCS(=O)(=O)C2)nc2cc([N+](=O)[O-])ccc21` (stereo not drawn), for which the z-score is -0.116. Next, `Brc1ccc2ncnc(NCc3ccco3)c2c1`: -0.314; `CCOC(=O)CNC(=O)c1ccc(C)cc1`: -0.233.

The compound `CC(C)CCNC(=O)c1cc(-c2ccco2)nc2ccccc12` yielded a z-score of -0.0704. Next, `CCOC(=O)c1ccc(-n2c(=O)[nH]c3ccccc3c2=O)cc1`: 0.447; `Cc1ccc(C)c(-n2c(Cc3cccs3)n[nH]c2=S)c1`: -0.178. In the case of `CCOc1ccc(Br)cc1S(=O)(=O)Nc1cccc(S(=O)(=O)N(C)C)c1`, the z-score was -0.185.

For `CCc1ccc(OCCOCC(O)CNC(C)CC)cc1` (stereo not drawn), the z-score is 0.0842.

`Cc1nn(CC(=O)NCCCN2CCOCC2)c(C)c1[N+](=O)[O-]`: the z-score worked out at 0.298.

Turning to `COc1ccc(S(=O)(=O)Nc2ccc(C(F)(F)F)cc2)cc1OC`, the z-score was -0.216. With `CCCCS(=O)CC(CS(=O)CCCC)OC(=O)c1ccc(C)cc1` (stereo not drawn) the figure was 0.313; with `CS(=O)(=O)N(CC(=O)N1CCN(c2ccccc2)CC1)c1cccc(Br)c1`, 0.00864. Next, `O=C(CNC(=O)c1ccc(Cl)cc1Cl)NCCCn1ccnc1`: -0.00696; `C=CCn1c(SCC(=O)OC)nc2sc3c(c2c1=O)CCN(C)C3`: 0.122; `COC(=O)Cc1c(O)ccn(Cc2cccc3ccccc23)c1=O`: -0.166. Next, `CCCNC(=O)N1CCC(C(=O)c2cccc(F)c2)CC1`: -0.0201; `CCc1cc2c(SCC(=O)c3ccc(C)cc3)ncnc2s1`: 0.131. On to `COc1cc(NC(=O)C2=C(N3CCOCC3)/C(=C\c3ccc(Br)cc3)CC2)cc(OC)c1OC`, for which the z-score stood at 0.467.

For `C=CCN1C(=O)/C(=C/c2ccc(OCC(=O)O)cc2)S/C1=N/c1nccs1`, the z-score was -0.81. With `COC(=O)CSc1nc(NCC(C)C)nc(N2CCOCC2)n1` the figure was -0.0815. With `Cc1cc(C)nc(-n2nc(C)cc2NC(=O)c2cccc(S(=O)(=O)N3CCOCC3)c2)n1` the figure was -0.43. Next, `O=C(Cn1c(C(=O)NCc2ccco2)cc2sccc21)c1ccccc1`: -0.393; `O=c1[nH]c(Cn2nnc(-c3ccccc3)n2)nc2scc(-c3ccccc3)c12`: 0.724. Compound `O=C(CS(=O)CC(=O)N(c1cccc(F)c1)C(C(=O)NC1CCCCC1)c1ccco1)Nc1ccc(F)cc1` (stereo not drawn) showed a z-score of -0.153. With `CCc1cccc(CC)c1NC(=O)c1cc(CN2C(=O)c3ccccc3C2=O)ccc1OC`, the z-score is -0.874. With `Cc1cnc(NC(=O)CSc2nnc(Cc3ccccc3)o2)s1` the figure was 0.123; with `Cc1c(NC(=O)C2CCCN2S(=O)(=O)c2cccc3nsnc23)cccc1C(=O)O` (stereo not drawn), -0.847. Next, `O=C1CCCN1CCC1CCN(C2CC(=O)N(Cc3ccc(N4CCCC4=O)cc3)C2=O)CC1` (stereo not drawn): 0.557; `Cc1ccc(C)c(OCC(=O)N/N=C/c2ccsc2)c1`: 1.97; `Cc1ccc(/C(N)=N/OC(=O)Oc2ccccc2)cc1`: -0.133. With `Cc1ccc(C)c(N(C(=O)Cn2nnc(-c3cccs3)n2)C(C(=O)NC2CC2)c2ccc(C)o2)c1` (stereo not drawn) the figure was -0.759; with `CCC(=O)NNC(=O)CCC(=O)Nc1ccccc1`, 0.0236. In turn, `Cc1ccc(CSc2nnc(-c3ccc(NS(=O)(=O)c4ccccc4)cc3)o2)cc1` returned a z-score of -0.055. With `COc1cc(OC)c(OC)cc1CN1CCN(Cc2cccn2C)CC1` the figure was -0.169; with `CCOc1ccccc1C(=O)N(Cc1ccco1)C1CCS(=O)(=O)C1` (stereo not drawn), 0.0514. With `CC1CC/C(=C\c2ccc3c(c2)OCO3)C(=O)/C1=C/c1ccc2c(c1)OCO2` (stereo not drawn), the z-score is -0.192. With `COC(=O)CSc1nsc(SCC(=O)OC)n1` the figure was -0.878; with `CCCS(=O)(=O)N1CCCC(C(=O)N2CCN(c3ccccc3)CC2)C1` (stereo not drawn), 0.0741. On to `Cc1nc(C)n(CC(O)COc2ccc3ccccc3c2)n1` (stereo not drawn), for which the z-score was -0.726. Next, `CCOC(=O)C1=C(C)NC(C)=C(C(=O)OCCNC(=O)c2cccnc2)C1c1cccc([N+](=O)[O-])c1` (stereo not drawn): -0.0655. With `OCCN1CCOCCOCCN(CCO)CCN(CCO)CC1` the figure was 0.325; with `CCOC(=O)c1c(NC(=O)C(Sc2ccccc2)c2ccccc2)sc(C(=O)N(C)C)c1C` (stereo not drawn), -0.221. Next, `CCN1C(=O)C2C(C1=O)N1C(c3cccs3)C3C(=O)N(CC)C(=O)C3N1C2c1cccs1` (stereo not drawn): -0.0354.

In turn, `O=c1c(-c2cc3ccccc3o2)[n+]([O-])c2ccccc2n1OCc1ccccn1` returned a z-score of -0.17. Next, `Cc1cnc(C(=O)OCC(=O)Nc2cccc(Cl)c2)cn1`: -0.681. In the case of `Cc1ccc(-c2nnc(N3CCN(C(=O)CSc4ncn[nH]4)CC3)c3ccccc23)cc1`, the z-score is -0.877. With `C(=N\N=C\c1cccnc1)/c1cccnc1` the figure was -0.247; with `CC1CN(C(=O)C(Sc2ccccc2)c2ccccc2)CC(C)O1` (stereo not drawn), -0.352; with `CC1(C)CC(NS(=O)(=O)c2ccc(S(=O)(=O)N3CCOCC3)cc2)CCO1` (stereo not drawn), 2.05. Next, `CC1CCN(c2cc(N3CCC(C)CC3)c([N+](=O)[O-])cc2/C=C(\C#N)c2nn(-c3ccccc3)c(N)c2C#N)CC1`: -0.103; `Cc1ccc(C(=O)N/C(=C\c2cccs2)C(=O)NC2CCCCC2)cc1`: -0.27; `O=C(N/N=C/c1cccc([N+](=O)[O-])c1O)c1cccs1`: 1.3. `COCCn1c(=NC(=O)C(C)(C)C)sc2cc([N+](=O)[O-])ccc21` returned a z-score of -0.196.

The compound `CNC(=S)Nc1ccc(OC)c(OC)c1` registered a z-score of 0.0698. Next, `Cc1ccc(CNC(=O)c2ccc(Cn3nc(C)c(Cl)c3C)o2)cc1`: 0.794; `COc1ccc(-n2c(=O)c3ccccc3c3ccccc3c2=O)cc1`: -0.0718. Next, `Cc1[nH][nH]c(=O)c1C(c1ccc(-c2ccc(Cl)cc2Cl)o1)c1c(C)[nH][nH]c1=O`: -1.11; `CCCCNC(=O)C1CCCNC1=O` (stereo not drawn): 0.0768. Regarding `COCCn1c(C)cc2c(c1=O)C(c1ccccc1F)C(C#N)=C(N)O2` (stereo not drawn), the z-score was -0.263. Regarding `Cc1ccc(S(=O)(=O)Nc2ccc(Cl)cc2C(=O)c2ccc(F)cc2)cc1`, the z-score came out at 0.0268. Next, `O=C(NN1C(=O)C2C3C=CC(C3)[C@H]2C1=O)c1cccnc1` (stereo partly drawn): 0.075. With `O=C(Nc1ccc(Cl)cc1)N1CCSCC1` the figure was -0.498. On to `O=C(NCCO)c1cc2c(s1)CCC2`, for which the z-score is -0.0332. With `Cc1cccc(C(=O)Nc2nc(C)c(C(=O)Nc3ccc4c(c3)CCC4)s2)c1` the figure was -0.0981. Next, `O=C(Nc1ccc2c(c1)OCCO2)c1cnccn1`: 0.074; `Cc1nnc(SCc2cc(=O)oc3cc(O)ccc23)n1Cc1ccccc1`: -0.533. Next, `CC(C)COC(=O)N(C)c1ccc(C(O)(C(F)(F)F)C(F)(F)F)cc1`: -0.931. On to `CCn1c(C(O)c2ccc3c(c2)OCO3)nc2ccccc21` (stereo not drawn), for which the z-score was 0.27. `CCOc1ccccc1NC(=O)CSc1c(C)n[nH]c1C` returned a z-score of -0.144. With `CC(=O)NC(C)(C)C1CC=C(C)/C(=N\O)C1` (stereo not drawn) the figure was 0.283; with `O=C(COC(=O)c1cccc2ccccc12)Nc1cccnc1Cl`, -0.0151. With `Cc1ccc(NC(=S)Nc2ccc3cn[nH]c3c2)cc1C` the figure was -0.174; with `O=C(NC1CCCC1)c1cnn2c(C(F)(F)F)cc(-c3ccc4c(c3)OCO4)nc12`, -0.558.

On to `O=C(c1ccc(N2CCN(CCO)CC2)nc1)N1CCOCC1`, for which the z-score was found to be 0.0375. Next, `CC(=O)N(CN1C(=O)c2ccccc2C1=O)c1ccc2c(c1)oc1ccccc12`: -0.224; `O=C(NC1CCC(NC(=O)C2CCCO2)CC1)C1CCCO1` (stereo not drawn): -0.103; `CC(=O)/C(=N\Nc1ccccc1)Oc1ccc([N+](=O)[O-])cc1`: 0.876. Next, `COc1ccc(-c2noc(-c3cc(Cl)ccc3Cl)n2)cc1OC`: active: 3.41. `CCOC(=O)c1ccccc1NC(=O)c1cncc(Br)c1`: the z-score was -0.19. With `Cc1noc(NS(=O)(=O)c2ccc(NC(=O)C34CC5CC(C3)CC(n3cnc(Br)n3)(C5)C4)cc2)c1C` the figure was -0.118; with `Cc1nn(-c2ccccc2)c2c1C1(C(=O)N3c4c(cccc41)C(C)CC3(C)C)C(C#N)=C(N)O2` (stereo not drawn), -0.264; with `Cc1cc(NC(=O)c2cccnc2)ccc1NC(=O)c1ccco1`, -0.766. Compound `O=C(O)CSc1ncn[nH]1` showed a z-score of 1.25. With `CCCSc1nnc(N2C(=O)CC(c3ccsc3)C3=C2CCCC3=O)s1` (stereo not drawn) the figure was -0.694; with `CN1C(=O)CC(C(=O)O)SC1=Nc1ccc(F)cc1` (stereo not drawn), -0.345. Next, `Cc1ccccc1-c1nnc(SCc2ccccc2)o1`: 0.436.
